{
  "source": "PubChem BioAssay AID588382",
  "about": "(National Center for Advancing Translational Sciences (NCATS), 2011)",
  "note": "“And” between values parts separate entries of the source, which are not always exact repeats. Equal values may be shown once. Screen size: about 1,300 compounds; about 150 (12%) were called active. The shares of active, inactive and inconclusive entries below differ from those in the screen. The call rests on the fitted dose curve; in most records, active means well fitted cell-killing curve with a large enough effect; inconclusive means small, poorly fitted or top-dose-only effect, or effect the other way; inactive means flat fitted curve, though single readings scatter. Potencies of inconclusive entries are doubtful fits and often do not repeat. Potency means the concentration at half of the fitted maximal effect; tags describe the fitted curve by direction and shape.",
  "data": [
    {"experiment": "qHTS of small molecules that selectively kill Giardia lamblia: Hit Validation in HepG2 cytotox;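 further: compound exposure lasted overnight at 37 deg C; nearly all actives have a fitted effect of over 55% in size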", "details": "cell viability; Potency: HepG2 cytotoxicity; series mostly up to 38.3 µM", "method_in_brief": "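Counterscreen cytotoxicity: ATPLite luminescence (15 min, room temperature) measured in HepG2 cells exposed overnight at 37 deg C to pin-transferred compound (23 nL) after overnight pre-incubation.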", "values": [
      {"smiles": "CC(C)N1CCc2c(sc(NC(=O)c3cc4cc([N+](=O)[O-])ccc4s3)c2C(N)=O)C1", "Potency": "inconclusive: 26.1 µM [cytotoxic, partial curve, poor fit]"},
      {"smiles": "c1ccc(CNc2ncnc3ccccc23)cc1", "Potency": "inconclusive: 18.5 µM [cytotoxic, partial curve, poor fit]"},
      {"smiles": "O=C1NC(=O)/C(=C\\c2ccc(Oc3ccc([N+](=O)[O-])cn3)cc2)S1", "Potency": "inactive"},
      {"smiles": "COc1ccc(C(C)=O)cc1COc1cccnc1[N+](=O)[O-]", "Potency": "inactive"},
      {"smiles": "Cc1cccc(NC(=O)c2ccc([N+](=O)[O-])o2)c1", "Potency": "inconclusive: 26.1 µM [cytotoxic, single point]"},
      {"smiles": "Cc1ccc(C(=O)N/N=C/c2ccc([N+](=O)[O-])s2)cc1", "Potency": "inconclusive: 23.3 µM [cytotoxic, single point]"},
      {"smiles": "CCOC(=O)C1CCN(C(=O)c2c(C)oc3c2C(=O)c2ccccc2C3=O)CC1", "Potency": "inconclusive: 3.69 µM [cytotoxic, full curve]"},
      {"smiles": "CCn1nnc(NC(=O)c2ccc(C(C)(C)C)cc2)n1", "Potency": "inconclusive: 8.26 µM [cytotoxic, partial curve]"},
      {"smiles": "O=C(NCc1cccnc1)c1ccc([N+](=O)[O-])o1", "Potency": "inconclusive: 16.5 µM [cytotoxic, single point]"},
      {"smiles": "CCN(CC)C(=O)Cn1cc([N+](=O)[O-])cc1[N+](=O)[O-]", "Potency": "inactive"},
      {"smiles": "CC(=O)OCON[N+]([O-])=NC(C)C", "Potency": "inactive"},
      {"smiles": "N#C/C(=C\\c1ccc(O)c([N+](=O)[O-])c1)c1nc2ccccc2s1", "Potency": "inconclusive: 3.29 µM [cytotoxic, partial curve, poor fit]"},
      {"smiles": "COC(=O)C1=C(C)N(C)C(=O)NC1c1ccc([N+](=O)[O-])o1", "note": "(stereo not drawn)", "Potency": "inconclusive: 26.1 µM [rising, partial curve, poor fit]"},
      {"smiles": "Cc1ccc(C(=O)Nc2ncc([N+](=O)[O-])s2)cc1", "Potency": "active: 6.56 µM"},
      {"smiles": "O=C(COc1ccc(Cl)cc1)Nc1ncc([N+](=O)[O-])s1", "Potency": "inconclusive: 10.4 µM [cytotoxic, partial curve, poor fit]"},
      {"smiles": "O=C1c2ccccc2C(=O)c2[nH]cnc21", "Potency": "inconclusive: 11.7 µM [cytotoxic, single point]"},
      {"smiles": "CCCCCN=Cc1c(C)[nH]n(-c2nc3ccccc3s2)c1=O", "Potency": "active: 0.329 µM"},
      {"smiles": "Cc1ncc(CO)c(/C=N/NC(=O)c2cc3c(s2)CCCC3)c1O", "Potency": "active: 2.07 µM"},
      {"smiles": "CC(C)Oc1cc(O)c2c(=O)c(-c3ccc(O)cc3)coc2c1", "Potency": "inconclusive: 6.56 µM [cytotoxic, partial curve]"},
      {"smiles": "CCS(=O)(=O)CCn1c([N+](=O)[O-])cnc1C", "Potency": "inactive"},
      {"smiles": "C=CCn1c(C)cc(C(=O)COC(=O)c2n[nH]c(=O)c3ccccc23)c1C", "Potency": "inactive"},
      {"smiles": "O=C(N/N=C/c1ccc([N+](=O)[O-])o1)c1cn(-c2ccccc2)nc1-c1ccccc1", "Potency": "inconclusive: 2.61 µM [cytotoxic, partial curve, poor fit]"},
      {"smiles": "CCOC(=O)c1c(C)oc2c1C(=O)c1ccccc1C2=O", "Potency": "inconclusive: 13.1 µM [cytotoxic, single point]"},
      {"smiles": "CCn1c(C)cc(C(=O)COC(=O)c2ccccc2[N+](=O)[O-])c1C", "Potency": "inconclusive: 2.33 µM [rising, partial curve, poor fit]"},
      {"smiles": "COC(=O)c1sc(NC(=O)c2ccc(OC)cc2OC)nc1C", "Potency": "inconclusive: 0.927 µM [cytotoxic, full curve]"},
      {"smiles": "CC(C)(C)c1ccc2c(c1)OC(C(=O)N/N=C/c1ccc([N+](=O)[O-])o1)CO2", "note": "(stereo not drawn)", "Potency": "inactive"},
      {"smiles": "Cc1ccccc1NC(=O)c1ccc([N+](=O)[O-])o1", "Potency": "inconclusive: 26.1 µM [cytotoxic, single point]"},
      {"smiles": "C=CCn1c(C)cc(C(=O)COc2ccc(C)nc2[N+](=O)[O-])c1C", "Potency": "inactive"},
      {"smiles": "COc1ccc(/C=C/c2ccc3ccccc3n2)c(OC)c1", "Potency": "inconclusive: 20.7 µM [cytotoxic, single point]"},
      {"smiles": "O=c1c2ccccc2sc2ccc(C#CC3(O)CCCCC3)cc12", "Potency": "inconclusive: 1.47 µM [cytotoxic, full curve]"},
      {"smiles": "O=C(Nc1ncc([N+](=O)[O-])s1)c1cccs1", "Potency": "inconclusive: 585 nM [cytotoxic, partial curve, poor fit] and inconclusive: 1.85 µM [cytotoxic, partial curve, poor fit]"},
      {"smiles": "Cn1c([N+](=O)[O-])cnc1COC(N)=O", "Potency": "inconclusive: 2.33 µM [rising, full curve]"},
      {"smiles": "Cn1c(=NC(=O)c2cnccn2)sc2ccccc21", "Potency": "inconclusive: 4.14 µM [cytotoxic, partial curve]"},
      {"smiles": "O=C(NCc1ccc(Cl)cc1)C1CCC(CNS(=O)(=O)c2ccccc2)CC1", "note": "(stereo not drawn)", "Potency": "inconclusive: 2.93 µM [cytotoxic, partial curve, poor fit]"},
      {"smiles": "O=C(NCC(c1ccc(F)cc1)N1CCOCC1)c1ccc([N+](=O)[O-])o1", "note": "(stereo not drawn)", "Potency": "inconclusive: 26.1 µM [cytotoxic, single point]"},
      {"smiles": "CC(=O)OCc1c(COC(C)=O)[n+](=O)c2ccccc2n1[O-]", "Potency": "inconclusive: 8.26 µM [rising, partial curve, poor fit]"},
      {"smiles": "Cn1ccsc1=NC(=O)c1ccc([N+](=O)[O-])o1", "Potency": "inconclusive: 14.7 µM [cytotoxic, partial curve, poor fit]"},
      {"smiles": "O=[N+]([O-])c1nn(-c2ccccc2)n(O)c1=NC1CCN(Cc2ccccc2)CC1", "Potency": "inconclusive: 14.7 µM [cytotoxic, partial curve, poor fit]"},
      {"smiles": "Cc1ccc(S(=O)(=O)N2[C@@H](c3ccccc3F)C(C(=O)O)=CC[C@H]2c2ccc(Cl)cc2)cc1", "Potency": "inconclusive: 0.131 µM [cytotoxic, full curve, poor fit]"},
      {"smiles": "Clc1ccccc1CSc1nc2ccncc2[nH]1", "Potency": "inconclusive: 3.29 µM [cytotoxic, full curve]"},
      {"smiles": "CN(C)S(=O)(=O)c1ccc(N2CCCC2)c(C(=O)N2CCN(c3ccc([N+](=O)[O-])cc3)CC2)c1", "Potency": "inconclusive: 26.1 µM [cytotoxic, partial curve, poor fit]"},
      {"smiles": "CC(NC(=O)COc1cccnc1[N+](=O)[O-])c1ccc(Cl)cc1", "note": "(stereo not drawn)", "Potency": "inactive"},
      {"smiles": "CC(C)Oc1ccccc1C1Nc2ccccc2C(=O)N1c1ccc2c(c1)OCCO2", "note": "(stereo not drawn)", "Potency": "inconclusive: 14.7 µM [cytotoxic, single point]"},
      {"smiles": "Cc1ccc(OCC(=O)N(C)CC(=O)Nc2ccc(Cl)c(C(F)(F)F)c2)c([N+](=O)[O-])n1", "Potency": "inconclusive: 16.5 µM [cytotoxic, single point]"},
      {"smiles": "COc1cc(/C=C/C(=O)c2ccc3c(c2)OCCO3)cc(OC)c1OC", "Potency": "inconclusive: 0.736 µM [cytotoxic, partial curve, poor fit]"},
      {"smiles": "Cn1nc([N+](=O)[O-])nc1N1CCOCC1", "Potency": "inconclusive: 13.1 µM [rising, single point]"},
      {"smiles": "O=C(NCc1ccco1)c1ccc([N+](=O)[O-])o1", "Potency": "inactive"},
      {"smiles": "O=C(Nc1ncc([N+](=O)[O-])s1)c1ccccc1Br", "Potency": "inconclusive: 16.5 µM [cytotoxic, partial curve, poor fit]"},
      {"smiles": "CC(=O)Oc1ccc2c(=O)c(Oc3ccccc3[N+](=O)[O-])coc2c1", "Potency": "inactive"},
      {"smiles": "COc1cc(NC(=O)c2ccc([N+](=O)[O-])o2)ccc1NC(=O)c1ccco1", "Potency": "inconclusive: 3.69 µM [cytotoxic, full curve, poor fit]"},
      {"smiles": "O=C(Nc1ccc(N2CCCC2)c(Cl)c1)c1ccc([N+](=O)[O-])o1", "Potency": "active: 7.36 µM"},
      {"smiles": "COc1ccc(-c2cc3nc[nH]c(=O)c3s2)cc1", "Potency": "inconclusive: 10.4 µM [cytotoxic, partial curve]"},
      {"smiles": "CC(=NN1CC(=O)NC1=O)c1ccc([N+](=O)[O-])o1", "Potency": "inactive"},
      {"smiles": "CC(C)(C)n1nc(-c2ccc(Cl)cc2)c2c(N)ncnc21", "Potency": "inactive"},
      {"smiles": "Cc1ccc(S(=O)(=O)N2[C@@H](c3ccc(F)cc3)C(C(=O)O)=CC[C@H]2c2cccs2)cc1", "Potency": "inactive"},
      {"smiles": "COc1ccc(CNc2ccc([N+](=O)[O-])cn2)cc1", "Potency": "inconclusive: 4.65 µM [cytotoxic, single point]"},
      {"smiles": "CCOC(=O)Cc1csc(NC(=S)NC(=O)c2ccc(C)cc2)n1", "Potency": "active: 2.93 µM"},
      {"smiles": "O=C(N/N=C/c1ccc([N+](=O)[O-])o1)c1ccccc1-n1cccc1", "Potency": "inconclusive: 13.1 µM [cytotoxic, single point]"},
      {"smiles": "O=C(/C=C/c1ccc(O)c([N+](=O)[O-])c1)c1ccc2ccccc2c1", "Potency": "inactive"},
      {"smiles": "CCN(CC(=O)NCc1cccs1)C(=O)c1ccc([N+](=O)[O-])o1", "Potency": "inactive"},
      {"smiles": "CCC(=O)N1CCN(c2ccc(NC(=O)c3ccc([N+](=O)[O-])o3)cc2)CC1", "Potency": "active: 11.7 µM"},
      {"smiles": "O=C(N/N=C/c1ccc([N+](=O)[O-])o1)c1cc2ccccc2o1", "Potency": "inconclusive: 26.1 µM [cytotoxic, single point]"},
      {"smiles": "Cc1ccc(-c2nc(-c3ccccc3)no2)c(Cl)c1", "Potency": "inconclusive: 14.7 µM [cytotoxic, partial curve]"},
      {"smiles": "C(=NN1CCCCCC1)c1ccc2ccccc2n1", "Potency": "inconclusive: 7.36 µM [cytotoxic, partial curve, poor fit]"},
      {"smiles": "Nc1ncn([C@H]2C[C@H](O)[C@@H](CO)O2)c(=O)n1", "Potency": "inconclusive: 0.0369 µM [rising, full curve, poor fit]"},
      {"smiles": "Cc1nc2cc(NC(=O)c3ccc([N+](=O)[O-])s3)ccc2s1", "Potency": "inactive"},
      {"smiles": "CCOc1ccccc1C(=O)Nc1ccc2nc(N3CCN(c4ncccn4)CC3)cc(C)c2c1", "Potency": "inconclusive: 13.1 µM [cytotoxic, single point]"},
      {"smiles": "O=C(NN(c1ccccc1)c1ccccc1)c1ccc([N+](=O)[O-])o1", "Potency": "inconclusive: 23.3 µM [cytotoxic, single point]"}
    ]}
  ]
}
